{
  "source": "PubChem BioAssay (NCI)",
  "assay_in_all_cases": "DTP human tumour cell line panel, 48 h",
  "key": {"CAKI-1 renal": {"tested_on": "CAKI-1 renal"}, "EKVX NSCLC": {"tested_on": "EKVX NSCLC"}, "NCI-H522 lung": {"tested_on": "NCI-H522 lung"}, "HOP-92 NSCLC": {"tested_on": "HOP-92 NSCLC"}, "OVCAR-3 ovarian": {"tested_on": "OVCAR-3 ovarian"}, "CCRF-CEM leukemia": {"tested_on": "CCRF-CEM leukemia"}, "HL-60(TB) leukemia": {"tested_on": "HL-60(TB) leukemia"}, "KM12 colon": {"tested_on": "KM12 colon"}, "OVCAR-4 ovarian": {"tested_on": "OVCAR-4 ovarian"}, "OVCAR-8 ovarian": {"tested_on": "OVCAR-8 ovarian"}, "RPMI-8226 leukemia": {"tested_on": "RPMI-8226 leukemia"}, "SNB-75 CNS": {"tested_on": "SNB-75 CNS"}},
  "note": "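The compound was tested at five concentrations on cells cultured in 96-well plates, with a 48-hour exposure period. GI50: concentration for 50% inhibition of growth.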 Certain results were filed several times, with different values. They are shown here; other results are not. The source may hold further records. For part of these data: The tests behind the records often covered other concentration ranges, which the source does not state; a value can be the end of its range. For part of these data: Values given together repeat one measurement across runs, samples, wells, individuals or studies. Records carry a tag for their origin. Letters hold for one entry only.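 TGI: total growth inhibition.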",
  "data": [
    {"smiles": "Cc1cnc(Nc2ccc(OCCN3CCCC3)cc2)nc1Nc1cccc(S(=O)(=O)NC(C)(C)C)c1", "values": [
      {"measurement": "TGI", "setting": "CAKI-1 renal", "result": "382 nM [sample A, mean of 2 tests] and > 5.54 µM [sample B, mean of 2 tests]"},
      {"measurement": "GI50", "setting": "EKVX NSCLC", "result": "82.7 nM [sample A, 1 test] and 2.16 µM [sample B, mean of 2 tests]"}
    ]},
    {"smiles": "COc1cc2ncnc3c2cc1OCCCCCN(C)Cc1ccc(Br)cc1N3", "values": [
      {"measurement": "TGI", "setting": "NCI-H522 lung", "result": "> 100 µM [sample A, 1 test] and 6.65 µM [sample B, 1 test]"}
    ]},
    {"smiles": "C/C(=N\\NC(=S)N1CCN(c2ccccn2)CC1)c1nccs1", "values": [
      {"measurement": "TGI", "setting": "HOP-92 NSCLC", "result": "92.3 nM and 18.7 µM"},
      {"measurement": "TGI", "setting": "OVCAR-3 ovarian", "result": "47.8 nM [1 test] and 18.3 µM [mean of 2 tests]"}
    ]},
    {"smiles": "CCC1(OC(=O)CN)C(=O)OCc2c1cc1n(c2=O)Cc2cc3cc4c(cc3nc2-1)OCO4", "note": "(stereo not given)", "values": [
      {"measurement": "TGI", "setting": "CCRF-CEM leukemia", "result": "202 nM and 8.83 µM"},
      {"measurement": "TGI", "setting": "HL-60(TB) leukemia", "result": "183 nM and < 10 nM"},
      {"measurement": "GI50", "setting": "HOP-92 NSCLC", "result": "203 nM and < 10 nM"},
      {"measurement": "TGI", "setting": "HOP-92 NSCLC", "result": "16.5 µM and 345 nM"},
      {"measurement": "TGI", "setting": "KM12 colon", "result": "434 nM and > 100 µM"},
      {"measurement": "TGI", "setting": "OVCAR-4 ovarian", "result": "4.55 µM and 414 nM"},
      {"measurement": "GI50", "setting": "OVCAR-8 ovarian", "result": "> 100 µM and < 10 nM"},
      {"measurement": "TGI", "setting": "OVCAR-8 ovarian", "result": "> 100 µM and 380 nM"},
      {"measurement": "TGI", "setting": "RPMI-8226 leukemia", "result": "523 nM and > 100 µM"},
      {"measurement": "TGI", "setting": "SNB-75 CNS", "result": "18.3 µM and < 10 nM"}
    ]}
  ]
}
